From paper PMC4336329 (PLoS ONE, 2015)
The whole screen tested about 310,000 compounds, of which about 2,200 (0.71%) showed an effect of 50% or more. Effects have a minus sign here. The list shows a part of the results.

Molecular target: human ether-à-go-go-related gene (hERG) potassium channel (human, UniProt Q12809)
Assay: primary screen, population patch clamp on CHO cells stably expressing hERG

Sequence of human ether-à-go-go-related gene (hERG) potassium channel (Q12809 whole entry, looked up): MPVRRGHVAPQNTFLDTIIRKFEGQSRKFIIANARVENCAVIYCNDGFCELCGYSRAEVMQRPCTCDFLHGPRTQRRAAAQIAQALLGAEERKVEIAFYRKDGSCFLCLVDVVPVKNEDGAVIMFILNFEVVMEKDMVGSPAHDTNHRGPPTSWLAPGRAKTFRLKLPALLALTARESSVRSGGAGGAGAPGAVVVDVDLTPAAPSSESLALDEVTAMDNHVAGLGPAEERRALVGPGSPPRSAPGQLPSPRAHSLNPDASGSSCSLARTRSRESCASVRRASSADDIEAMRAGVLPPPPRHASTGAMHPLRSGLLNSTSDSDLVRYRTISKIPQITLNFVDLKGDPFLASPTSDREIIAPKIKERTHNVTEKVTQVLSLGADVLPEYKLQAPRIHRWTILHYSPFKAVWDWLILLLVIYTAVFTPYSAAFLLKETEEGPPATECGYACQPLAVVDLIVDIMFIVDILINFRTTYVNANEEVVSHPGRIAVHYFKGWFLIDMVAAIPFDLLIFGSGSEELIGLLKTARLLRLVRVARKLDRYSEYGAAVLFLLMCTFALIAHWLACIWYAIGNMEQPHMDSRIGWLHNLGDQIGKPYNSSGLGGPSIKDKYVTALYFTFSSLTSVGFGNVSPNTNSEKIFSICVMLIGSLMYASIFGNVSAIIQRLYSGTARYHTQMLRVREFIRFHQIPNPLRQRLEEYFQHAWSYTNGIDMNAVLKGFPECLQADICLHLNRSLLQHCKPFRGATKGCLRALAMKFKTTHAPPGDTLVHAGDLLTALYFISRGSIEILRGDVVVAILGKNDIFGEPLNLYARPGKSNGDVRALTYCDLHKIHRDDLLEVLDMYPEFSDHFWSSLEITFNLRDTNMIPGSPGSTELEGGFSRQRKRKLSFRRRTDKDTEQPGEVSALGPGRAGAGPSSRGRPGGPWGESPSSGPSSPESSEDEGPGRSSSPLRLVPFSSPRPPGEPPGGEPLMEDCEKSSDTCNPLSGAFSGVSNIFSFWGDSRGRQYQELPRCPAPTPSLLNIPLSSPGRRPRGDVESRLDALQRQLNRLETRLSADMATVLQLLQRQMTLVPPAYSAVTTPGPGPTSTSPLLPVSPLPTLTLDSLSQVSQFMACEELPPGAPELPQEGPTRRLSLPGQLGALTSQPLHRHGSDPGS

| SMILES | hERG current change (%, negative = inhibition) at 1uM [%] |
| --- | --- |
| Cc1ccnc(NC(=O)CCS(=O)(=O)c2ccccc2)c1 | 18.1 |
| C/C(=N/NC(=O)Cc1ccccc1)c1ccc(C)s1 | 11.5 |
| O=C(COC(=O)CN1C(=O)c2ccccc2C1=O)Nc1ccc(S(=O)(=O)N2CCCC2)cc1 | 4.89 |
| O=C(CN1CCN(c2ccccn2)CC1)N1c2ccccc2Sc2ccc(C(F)(F)F)cc21 | -9.71 |
| Cc1[nH]n(-c2ccc([N+](=O)[O-])cc2)c(=O)c1C=NCCN1CCN(C(=O)c2ccccc2)CC1 | -77 |
| COC(=O)C1CCN(C(c2cc(OC)c(OC)c(OC)c2)c2sc3nc(C)nn3c2O)CC1 (centres unmarked) | 11.1 |
| Cc1ccc([N+](=O)[O-])cc1NC(=O)CNC1CCCCC1 | -0.383 |
| CS(=O)(=O)N1CCN(C(=O)c2ccccc2)C1 | 18.7 |
| CC(=O)O[C@]1(C(C)=O)CCC2C3C=C(C)C4=CC(=O)CC[C@]4(C)C3CC[C@@]21C (some centres unmarked) | 6.1 |
| Cc1ccc(-c2c(C(=O)N/N=C/c3cccs3)nnn2-c2nonc2N)cc1 | 22.2 |
| Cc1ccc(C)c(N2CCN(C(=O)C3CCCN(c4ncnc5c4nc4n5CCCCC4)C3)CC2)c1 (centres unmarked) | 13.3 |
| O=C1Nc2ccc(F)cc2C12Nc1ccccc1-c1nnc(SCc3ccccc3F)nc1O2 (centres unmarked) | 9.86 |
| CCCCOC(=O)Nc1ccccc1C(N)=O | 4.25 |
| O=[N+]([O-])c1ccccc1/C=C/CN1CCCC(CO)C1 (centres unmarked) | 8.86 |
| O=C(C1CCN(S(=O)(=O)c2cccc3cccnc23)CC1)N1CCN(c2ccccc2)CC1 | -1.86 |
| O=C(NCc1ccc(F)cc1)c1ccc2c(=O)n3c(nc2c1)CCCCC3 | -6.04 |
| Br.N=c1n(CC(=O)c2cccs2)c2ccccc2n1Cc1ccccc1 | -7.48 |
| O=C(CNC(=O)COc1ccccc1)NCCN1CCOCC1 | 5.89 |
| COc1ccc(Cc2nc3ccccc3[nH]2)cc1OC | 9.68 |
| CC(OC(=O)C1CCN(S(=O)(=O)c2ccc(Cl)cc2)CC1)C(=O)NC1CCCCC1C (centres unmarked) | 3.83 |
| COc1ccccc1CNC(=O)CCCn1nc(C)c2c(C)n(-c3ccc(C)cc3)nc2c1=O | 0.392 |
| COc1ccc(C(C)=O)cc1Cc1c(O)[nH]c(=S)[nH]c1=O | 6.22 |

| SMILES | hERG current change (%, negative = inhibition) at 1uM [%] |
| --- | --- |
| Cn1ncc(N2CCN(S(=O)(=O)c3ccc(Br)cc3)CC2)c(Cl)c1=O | -9.79 |
| COc1ccc(CC(=O)NNC(=O)CN(C)S(=O)(=O)c2ccc(Cl)cc2)cc1OC | 6.69 |
| CCN(CC(=O)Nc1ccc(C#N)c(Cl)c1)CC(=O)NC(C)(C)C | 3.53 |
| CC(OC(=O)c1nn(C)c(=O)c2ccccc12)C(=O)NCc1ccc2c(c1)OCO2 (centres unmarked) | 5.72 |
| Cc1onc(-c2ccccc2)c1C(=O)n1cccn1 | 15.2 |
| CCOc1ccc2nc(NC(=O)C3CCN(c4cnccn4)CC3)sc2c1 | 3.28 |
| CCOC(=O)c1c(-c2ccccc2)oc2ccc(O)c(CN3CCOCC3)c12 | -9.83 |
| COc1ccccc1C(=O)Nc1nnc(-c2ccc(F)cc2)o1 | 7.76 |
| CCOC(=O)CNC(=O)CSc1nnc(-c2ccccc2)n1Cc1ccco1 | 10.1 |
| O=C(OCc1ccccc1)c1cnc(Cl)c(Cl)c1 | 1.87 |
| CC1CC(C)CN(C(=O)c2cccc(N3C(=O)c4ccccc4C3=O)c2)C1 (centres unmarked) | 8.8 |
| O=C(NC1=NCCS1)c1ccc(OCC2CCCO2)cc1 (centres unmarked) | 6.55 |
| CC(C)C(O)C1CCN(Cc2nc(-c3cccs3)no2)CC1 (centres unmarked) | -4.64 |
| CC1CCCCN1C(=O)C1CCN(S(=O)(=O)c2ccc(-n3cnnn3)cc2)CC1 (centres unmarked) | -15.5 |
| CC1CC(C(F)F)n2nc(C(=O)Nc3sc4c(c3C#N)CCC(C(C)(C)C)C4)nc2N1 (centres unmarked) | 13.1 |
| NC(=O)CC(NC(=O)c1ccccc1)c1ccc(N2CCC(Cc3ccccc3)CC2)c([N+](=O)[O-])c1 (centres unmarked) | 7.73 |
| N#Cc1ccc(OCc2cccc(S(=O)(=O)N3CCOCC3)c2)cc1 | -57.3 |
| Cn1cc(CNC(=O)C2CCCCC2)cn1 | -8.5 |
| Cc1ccc(CNC(=O)CSc2nnc(CNC(=O)c3ccccc3)o2)cc1 | 13.4 |
| O=C(CCc1nc2ccccc2[nH]c1=O)OCC(=O)N1CCc2ccccc21 | 8.03 |
| Cc1[nH]n(-c2ccc(Cl)cc2)c(=O)c1C=NC12CN3CN(CN(C3)C1)C2 | 10.9 |
| CC(=O)c1ccc(S(=O)(=O)N2CCN(C(=O)c3ccc(N)c([N+](=O)[O-])c3)CC2)cc1 | 3.67 |

| SMILES | hERG current change (%, negative = inhibition) at 1uM [%] |
| --- | --- |
| Cc1c(-c2ccccc2)n[nH]c1C(=O)N=Nc1c(O)[nH]c2ccccc12 | 2.33 |
| CC(NC(=O)NC1CCCCC1)C(c1cccs1)N1CCN(C)CC1 (centres unmarked) | 6.52 |
| CCOC(=O)c1c(NC2OC(=O)c3c2ccc(OC)c3OC)sc(C(=O)OC(C)(C)C)c1C (centres unmarked) | 5.82 |
| COc1ccc(N2CCN(C(=O)COc3ccc4c(C)cc(=O)oc4c3)CC2)cc1 | 9.09 |
| CC(C)c1ccc2c(c1)C(c1cccs1)=NNC(c1ccncc1)=N2 | 12.3 |
| CCN(CC)S(=O)(=O)c1ccc(N2CCN(C)CC2)c(NC(=O)COc2ccc(F)cc2Cl)c1 | -2.91 |
| CCN(CC)CCC/C(=N\O)C(O)(c1ccccc1)c1ccccc1 | 10.9 |
| O=C(CSc1ccc(Cl)cc1)Nc1nnc(-c2cccc([N+](=O)[O-])c2)s1 | 13.3 |
| CCn1c(SCc2nc3ccccc3[nH]2)nnc1-c1ccccc1OC | -0.918 |
| COc1cc2[nH]c3c(OC)ncnc3c2cc1OC | 5.47 |
| CCOC(Cn1ccc(=O)[nH]c1=O)OCC | 7.3 |
| CCN(C(=O)c1ccnn1C)c1ccccc1 | 2.86 |
| N#Cc1ccccc1OCCCN1CCC(Cc2ccccc2)CC1.O=C(O)C(=O)O | -83 |
| Cc1ccc(OCC(=O)NCCN2CCOCC2)cc1C | 7.39 |
| CC(=O)c1ccc(S(=O)(=O)N2CCC3(CC2)OCCO3)cc1 | 11.4 |
| CCS(=O)(=O)Nc1cc(C(=O)OC)ccc1C(=O)OC | 7.43 |
| CCOC(=O)c1ccccc1NC(=O)CSc1ncc(C(=O)OCC)c(N)n1 | 14.9 |
| Cc1cccc(C)c1C(=NCCCN(C)C)c1ccccc1.Cl | 6.28 |
| O=C(Cn1ncc2c3ccccc3n(Cc3ccccc3)c2c1=O)NCCCN1CCCC1 | -29.5 |
| NS(=O)(=O)c1cc(C(=O)NCCc2ccccn2)ccc1Cl | -5.96 |
| COc1ccc(OCC(=O)OCC(=O)Nc2ccc3[nH]c(=O)[nH]c3c2)cc1 | 7.93 |
| CCCCC(=O)NC1=C(C(=O)OC)SCC1 | 17.4 |

| SMILES | hERG current change (%, negative = inhibition) at 1uM [%] |
| --- | --- |
| Cc1ccc(C(=O)NNC(=S)NC(=O)c2ccc(Cl)cc2Cl)cc1 | 4.12 |
| O=C(NCc1ccccn1)c1cccc(S(=O)(=O)NCc2ccccc2)c1 | 5.15 |
| COc1cccc(SCc2noc(C(=O)NCCCN3CCOCC3)c2C(=O)NCCCN2CCOCC2)c1 | 7.12 |
| CC(C)N(C(=O)CSc1nnc(-c2cc3ccccc3cc2O)n1Cc1ccco1)C(C)C | -17.3 |
| O=C(COC(=O)c1n[nH]c2ccccc12)Nc1ccc(Cl)cc1[N+](=O)[O-] | 15.9 |
| CC(C)(C)C(=O)Nc1nc2cc3c(cc2s1)OCO3 | 13.5 |
| N#C/C(=C/c1ccc(OCc2ccc(C(=O)O)cc2)cc1)C(=O)Nc1ccccc1 | 12.4 |
| O=C(NC1CCCCC1)C1CCN(C(=O)NCc2ccccc2)CC1 | 3.7 |
| Cc1cccc(N2CCN(C(=O)CCS(=O)(=O)c3ccc4c(c3)NC(=O)CO4)CC2)c1C | 12.5 |
| COc1ccc(C(=O)NCc2nnc(SCC(=O)Nc3cc(OC)ccc3OC)o2)cc1 | 1.8 |
| CCN(CC)CC.COc1ccccc1-n1c(=S)[nH]c2c(sc(=S)n2-c2ccccc2)c1=O | -1.99 |
| COc1ccc(C(=O)N(CCCO)C(C)C(=O)NC2CCCCC2)cc1OC (centres unmarked) | 4.45 |
| Cc1ccc2c(c1)C(=O)CCCCC(=O)N2 | 13.8 |
| Cc1nc(N2CCN(c3ccccc3)CC2)[nH]c(=O)c1Cc1cccc2ccccc12 | 13 |
| CN(C)c1nc(OCCOC(=O)Nc2ccc(Cl)cc2Cl)nc(N(C)C)n1 | -1.9 |
| CC1(C)Cc2nc3sc(C(=O)NCCCO)c(N)c3cc2CO1 | 10.2 |
| Cc1nn(-c2ccccc2)c(NC(=O)C(C)C)c(-c2ccccc2)c1=O | 12.8 |
| COc1ccc(CCn2c(N)c(C(=O)NCc3ccco3)c3nc4ccccc4nc32)cc1OC | 16.3 |
| CC(C(=O)NC1CCCCC1)N(Cc1ccc(F)cc1)C(=O)c1snc(C(N)=O)c1N (centres unmarked) | 9.81 |
| COc1ccc(NC(=S)Nc2ccc(S(N)(=O)=O)cc2)c(OC)c1 | 10.3 |
